Hit rate of the full screen: of about 310,000 compounds, about 14,000 (4.5%) showed an effect of 50% or more. Effects have a minus sign here. This is one part of the list.
Molecular target: human ether-à-go-go-related gene (hERG) potassium channel (human, UniProt Q12809)
Assay: primary screen, population patch clamp on CHO cells stably expressing hERG
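Note: peak tail current of the secondary pulse compared with the same well before compound.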

Chain of human ether-à-go-go-related gene (hERG) potassium channel (Q12809 whole entry, looked up): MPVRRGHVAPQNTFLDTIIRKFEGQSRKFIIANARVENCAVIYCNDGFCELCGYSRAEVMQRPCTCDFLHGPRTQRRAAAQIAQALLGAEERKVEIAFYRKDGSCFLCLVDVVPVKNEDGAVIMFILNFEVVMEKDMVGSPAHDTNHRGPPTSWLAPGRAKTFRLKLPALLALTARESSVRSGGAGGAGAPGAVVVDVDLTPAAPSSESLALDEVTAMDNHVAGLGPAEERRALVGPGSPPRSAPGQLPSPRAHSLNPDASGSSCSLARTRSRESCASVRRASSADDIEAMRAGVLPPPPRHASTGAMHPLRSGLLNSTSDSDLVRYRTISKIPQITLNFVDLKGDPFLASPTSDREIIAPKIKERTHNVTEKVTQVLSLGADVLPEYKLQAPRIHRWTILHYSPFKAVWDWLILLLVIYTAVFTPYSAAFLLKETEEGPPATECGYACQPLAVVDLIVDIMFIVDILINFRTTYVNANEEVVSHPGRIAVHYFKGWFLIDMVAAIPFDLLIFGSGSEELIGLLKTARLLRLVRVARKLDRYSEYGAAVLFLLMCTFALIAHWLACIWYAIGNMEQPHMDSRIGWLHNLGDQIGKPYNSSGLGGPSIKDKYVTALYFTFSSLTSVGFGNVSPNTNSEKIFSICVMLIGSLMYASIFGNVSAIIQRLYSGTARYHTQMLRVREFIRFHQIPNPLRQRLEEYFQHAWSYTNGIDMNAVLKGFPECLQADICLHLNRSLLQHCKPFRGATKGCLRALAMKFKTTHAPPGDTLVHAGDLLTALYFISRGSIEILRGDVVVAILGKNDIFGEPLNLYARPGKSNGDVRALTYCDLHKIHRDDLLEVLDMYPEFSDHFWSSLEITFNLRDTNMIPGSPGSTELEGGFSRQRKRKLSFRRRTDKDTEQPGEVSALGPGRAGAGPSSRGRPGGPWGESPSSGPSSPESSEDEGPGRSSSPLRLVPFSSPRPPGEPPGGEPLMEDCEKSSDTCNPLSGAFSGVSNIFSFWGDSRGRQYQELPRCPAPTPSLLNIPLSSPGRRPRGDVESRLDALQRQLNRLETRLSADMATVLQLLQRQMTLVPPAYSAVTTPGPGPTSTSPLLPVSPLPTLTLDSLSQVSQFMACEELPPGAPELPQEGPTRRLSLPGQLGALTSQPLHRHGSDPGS

| Compound | hERG current change (%, negative = inhibition) at 10uM [%] |
| --- | --- |
| Cc1ccc(C(=O)Nc2cc(Cl)ccc2N2CCCCC2)s1 | 13.3 |
| CC1=C(C(=O)OCc2ccccc2)C(c2ccc(Cl)cc2Cl)NC(=O)N1CCCCCC(=O)O (centres unmarked) | -16.2 |
| COc1ccc(Cc2c(N)nc(N)nc2N)cc1 | 12.7 |
| O=C(N/N=C/c1ccco1)c1ccc(OCc2ccccc2)cc1 | 10.9 |
| O=C(COc1ccc(F)cc1)Nc1ccc2c(c1)OCCO2 | 5.63 |
| OC(Cn1cncn1)c1ccc(Cl)cc1Cl (centres unmarked) | 7.9 |
| CC(C)Nc1nc(NC(C)C)nc(N(C#N)CCOc2ccc(Cl)cc2Cl)n1 | 8.24 |
| CC1CCN(C(=O)CNC(=O)Cn2ccc3ccccc3c2=O)CC1 | 4.54 |
| [N-]=[N+]=NCCN1CCN(Cc2ccccc2)CCC1=O | -1.88 |
| O=C(CCc1ccc(S(=O)(=O)N2CCOCC2)cc1)Nc1ccc2c(c1)OCCO2 | 2.23 |
| CC(C)(C)NC(NC(=O)Cc1ccccc1)C(Cl)(Cl)Cl (centres unmarked) | 2.38 |
| COc1cc(OC)c(OC)cc1C=NCC1(c2ccccc2)CCCC1.Cl | 12.1 |
| Cc1ccc(NC(=O)CN2C(=O)S/C(=C\c3cc(Cl)c(OCC(=O)O)c(Cl)c3)C2=O)cc1 | 19.3 |
| O=C(COC(=O)Cc1ccccc1F)NNC(=O)c1ccc([N+](=O)[O-])cc1 | -6.19 |
| CCCCOc1ccc(C(=O)NCC(=O)NC2CCN(Cc3ccccc3)CC2)cc1 | -25.6 |
| Cc1c(NC2=CC(=O)CC(C)(C)C2)ccc([N+](=O)[O-])c1C | -45.2 |
| O=C(O)c1ccc(N2CC3CC(C2)c2cccc(=O)n2C3)c(NC(=S)Nc2ccc(Br)cc2)c1 (centres unmarked) | 44.9 |
| O=C(O)c1cnn2c(C(F)F)cc(C(F)F)nc12 | 4.27 |
| O=Cc1ccc(-c2ccc(C(=O)O)cc2)o1 | -9.01 |
| COC(=O)c1ccc(OC)c(CSc2nnc(COc3ccc(OC)cc3)o2)c1 | -27.1 |
| O=C(Cn1cnc2ccccc2c1=O)N1CCN(c2ccc(F)cc2)CC1 | -7.04 |
| CCC(C(=O)Nc1nc(C)cs1)c1ccccc1 (centres unmarked) | 15.8 |
| Cc1ccc(NC(=O)CSc2nnc(C3CC3)n2CC2CCCO2)c(C)c1 (centres unmarked) | -9.98 |

| Compound | hERG current change (%, negative = inhibition) at 10uM [%] |
| --- | --- |
| Cc1ccc(-c2nc3c(c(SCC(=O)N4CCOCC4)n2)COC(C)(C)C3)cc1 | 3.09 |
| Cc1ccccc1C(=O)N1CCN(c2ccc([N+](=O)[O-])c(N3CCOCC3)c2)CC1 | -16.3 |
| Cc1ccc(CNC(=O)Cn2cccc2C(=O)c2ccccc2)cc1 | 1.89 |
| COc1ccc(CNC(=O)C2CCC(CNC(=O)[C@@H]3Cc4ccccc4CN3)CC2)cc1 (some centres unmarked) | -0.911 |
| Nn1c(=S)[nH]nc(Cc2ccc(O)cc2)c1=O | -18.7 |
| CCOC(=O)c1c(NC(=O)CN2CCCCC2)sc2c1CCCC2O (centres unmarked) | -4.73 |
| Cc1ccc(N=C2NC(=O)/C(=C/c3cccn3C)S2)c(C)c1 | 13.2 |
| O=C(O)[C@@H]1Cc2c([nH]c3ccccc23)C2CCC(=O)N21 (some centres unmarked) | 20.7 |
| CS(=O)(=O)Nn1cnc2ccccc2c1=O | 10.7 |
| CC1=CCC2C(=O)N(c3ccc(C(=O)Nc4ccccc4Cl)cc3)C(=O)C2C1 (centres unmarked) | -0.468 |
| O=C(NC1CCCc2ccccc21)C1CCN(S(=O)(=O)c2cccc3nonc23)CC1 (centres unmarked) | 18.7 |
| O=C(C=C1CCN(c2ncc(C(F)(F)F)cc2Cl)CC1)NNC(=O)Nc1ccc(Cl)cc1 | 4.73 |
| Cl.N[C@@H](CO)c1nnc([C@H](Cc2ccc(O)cc2)NC(=O)C2CCNCC2)o1 | 3.11 |
| CCn1cc(Br)c(C(=O)Nc2cccc(Cl)c2)n1 | -26.2 |
| Cn1c(Sc2ccc(C(F)(F)F)cc2[N+](=O)[O-])nnc1-c1ccccc1 | -62.8 |
| Cc1cnc(NC(=O)CSc2nnc(Cc3ccccc3)n2C)s1 | -12.1 |
| CCC(=O)Nc1ccc(C(=O)OCc2ccccc2)cc1 | 6.38 |
| O=C(COc1ccc(Cl)cc1Br)NC(=O)NCc1ccccc1 | 13.3 |
| NC(=O)c1ccc(NC(=O)CSc2nncn2-c2ccccc2)cc1 | 18.5 |
| CCCCOCCCNc1ncnc2c1[nH]c1ccccc12 | -45.5 |
| Cc1ccc(-c2nnc3n2N=C(c2ccccc2)CS3)cc1 | 3.15 |
| C=CCc1cc(C)cc(C)c1OCCn1cncn1 | -17.6 |
| CC(=O)NC12CC3CC(C1)CC(C(=O)OCC(=O)Nc1ncc(Cl)cc1Cl)(C3)C2 | -37.8 |

| Compound | hERG current change (%, negative = inhibition) at 10uM [%] |
| --- | --- |
| CC(C)N(C(=O)COC(=O)c1cccc(N(C)C)c1)c1ccccc1 | 2.4 |
| COc1cc(C2NC(=O)NC(C)=C2C(=O)OC2CCCC(C)C2)ccc1O (centres unmarked) | -15.9 |
| N#Cc1ccccc1S(=O)(=O)N1CCN(C(=O)C2CCCC2)CC1 | -5.7 |
| CCCNC(=O)NC(=O)CSc1nnc(-c2ccncc2)n1CC | 11.6 |
| CSCCC(NC(=O)C1CC1)c1nc2ccccc2[nH]1 (centres unmarked) | 9.28 |
| CC1CCN(C(=O)CN(Cc2ccccc2)S(C)(=O)=O)CC1 | 12.7 |
| CCOc1ccc(C(=O)NC(C(=O)NCc2cccnc2)C(C)C)cc1 (centres unmarked) | -33.1 |
| CC1CN(S(=O)(=O)c2ccc(C(=O)NN3CCN(C)CC3)cc2)CC(C)O1 (centres unmarked) | 21.2 |
| O=C(N/N=C\c1ccc(-c2ccc(Cl)c(Cl)c2)o1)C(=O)N1CCCC1 | -1.58 |
| Cc1ccc(S(=O)(=O)N2CCC(=O)N(C(COCc3ccc(C(F)(F)F)cc3)Cc3ccccc3)CC2)cc1 (centres unmarked) | -0.044 |
| O=C(Nc1ccc(F)cc1)c1ccc(S(=O)(=O)N2CCOCC2)o1 | -13.1 |
| COC(=O)/C=C1\NCCSC1=O | -6.99 |
| O=[N+]([O-])c1ccc(OS(=O)(=O)Cc2ccccc2)cc1 | -32.2 |
| O=C(OCC(=O)N1CCCC1=O)c1cc2ccccc2o1 | -4.34 |
| O=C(NC(=S)NC1CCCCC1)c1ccccc1 | 1.5 |
| O=C(CN1CCOCC1)Nc1c2c(nc3ccccc13)N(Cc1ccccc1)CC2.O=C(O)C(=O)O | -68.9 |
| C/C(=N\N1CCN(c2ccccc2)CC1)c1ccncc1 | 4.04 |
| O=C(O)CC1(CC(=O)Nc2ccccc2Br)CCCC1 | 0.928 |
| Cc1ccc(NC2CCCN(C(=O)c3cc4ncccn4n3)C2)cc1C (centres unmarked) | 11.8 |
| Cc1nc(S(=O)(=O)Cc2ccc(Cl)cc2)nc2c1CCC2 | 22.3 |
| COC(=O)C1=Cc2cc(OC)cc([N+](=O)[O-])c2OC1N1CCOCC1 (centres unmarked) | -30.8 |
| O=c1oc(-c2ccccc2F)nc2c1cnn2-c1ccccc1 | 0.817 |
| Cc1ccc(NC(=O)/C(C#N)=C/c2cc(C)n(-c3ccc(N4CCOCC4)c([N+](=O)[O-])c3)c2C)c(C)c1 | -10.7 |

| Compound | hERG current change (%, negative = inhibition) at 10uM [%] |
| --- | --- |
| O=C1CCC(C(=O)OCc2nnc(-c3ccccc3)o2)=NN1 | 19.1 |
| O=C(Nc1ccc(N2CCOCC2)cc1)c1cccc2ccccc12 | 11.7 |
| Cc1ccc(C)n1-c1ccc(-c2nnc3n2CCCCC3)s1 | -13.7 |
| CC1=NN(c2ccccc2)C(=O)/C1=C\c1cn(-c2ccccc2)nc1C | 10.3 |
| COCCCn1c(=N)c(C(N)=S)cc2c(=O)n3cccc(C)c3nc21 | -84.3 |
| CCOC(=O)c1nn(-c2cccc(C)c2)c2nnc(Cc3ccc(C)cc3)c(=O)n12 | -16.1 |
| Cc1ccc(NCC(=O)Nc2cccc(S(=O)(=O)N(C)C)c2)c(Cl)c1 | -6.84 |
| Cc1ccc(N2C(=O)N(CC(=O)Nc3ccc(C)cc3Cl)C(=O)C2C)cc1 (centres unmarked) | -16.5 |
| O=C(Nc1cccnc1)c1cc(-c2ccc3c(c2)OCO3)on1 | 2.67 |
| OCCOCCn1c(C2CCCN2c2nc(-c3ccc(F)cc3)cs2)nc2cc(C(F)(F)F)ccc21 (centres unmarked) | -75.1 |
| CC(=O)c1ccc(OCCCC(=O)NC(C)c2ccc(S(N)(=O)=O)cc2)cc1 (centres unmarked) | 17.9 |
| Cc1noc(C)c1CSCC(=O)N(C)CC(=O)Nc1ccc(Cl)c(Cl)c1 | -22.9 |
| COc1ccc(-c2nn(-c3ccccc3)cc2N)cc1 | -3.82 |
| C=CCNC(=S)N/N=C/c1ccc(C)s1 | 9.8 |
| COc1ccccc1OCCNC(=O)c1cccc(S(=O)(=O)N2CCN(Cc3ccccc3)CC2)c1 | -30.8 |
| CCc1ccc2oc(=O)cc(CN3CCOCC3)c2c1 | -5.95 |
| Cc1ccc(-c2cn3c(n2)SCC3)cc1 | 8.36 |
| c1cc2c3c(cccc3c1)C(N1CCCCCC1)=N2 | -67 |
| Cn1c(CC(=O)Nc2ccccc2)c(Sc2ccccc2)c2ccccc21 | 24.4 |
| COc1ccc(S(=O)(=O)N(C)c2ccc(C(=O)NC3CCCC3)cc2)cc1 | -83.7 |

From publication PMC4336329 (PLoS ONE, 2015)
